Test results taken from PubChem BioAssay AID493208 (National Center for Advancing Translational Sciences (NCATS), 2011).
Screen size: about 44,000 compounds; about 340 (0.77%) were called active. Roughly 5% stayed inconclusive and do not appear here. Calls come from the whole dose curve; as a rule, active = well fitted inhibition curve with a large enough effect; inconclusive = small, poorly fitted or top-dose-only effect; inactive = flat fitted curve, though single readings scatter. The list shows a part of the results.

assay: Acumen qHTS Assay for Inhibitors of the mTORC1 Signaling Pathway in MEF (Tsc2-/-, p53-/-) Cells: Sytravon; details: phospho-rpS6 immunofluorescence/PI, 24 h; series mostly up to 38.3 µM; activity change, negative = inhibition: at the top concentration;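 note: plate controls were DMSO for no effect and rapamycin for full effect; nearly all actives have a fitted effect of over 50% in size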
Summary of the method: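 Immunofluorescence of rpS6 phosphorylation in Tsc2-/-, p53-/- MEFs after 24 h compound exposure, normalized to propidium iodide signal. Activity is expressed as % positive cells, thresholded with 7.5 nM rapamycin.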

Activity change, negative = inhibition, inactive:
O=C(Nc1cccc(NC(=O)c2ccc(Br)o2)c1)c1ccccc1 2.08%, COc1ccc(-n2c(=O)c3c4c(sc3n(Cc3cc(C)ccc3C)c2=O)CN(C(C)=O)CC4)c(OC)c1 -4.59%, Cc1ccccc1-n1cc(-c2ccccc2)nc1SCC(=O)Nc1ccc(F)cc1 -4.68%, CCCn1c2ccccc2c2cnn(CC(=O)N3CCC(C(=O)OCC)CC3)c(=O)c21 4.05%, Cc1ccc(CNc2nc3ccccc3n3c(C)nnc23)cc1 -3.88%, COc1ccc(C2C(=O)N(C3CCC(C)CC3)CC(=O)N2Cc2ccccc2Cl)cc1OC (stereo unspecified) -0.492%, Cc1ccc(Sc2c(C)nn(C(=O)COc3ccc(F)cc3)c2C)cc1 -0.0648%, O=C(NCCN1CCN(c2ccccc2)CC1)Nc1ccccc1Br -4.65%, Cc1ccc(N2CC(NC(=O)c3ccc(S(=O)(=O)N4CCOCC4)cc3)CC2=O)cc1C (stereo unspecified) -0.161%, Cc1cccc(CNC(=O)C2CCN(c3nnc(-n4c(C)ccc4C)s3)CC2)c1 0.183%, Cc1cc2oc(=O)c(CC(=O)O)c(C)c2c2occ(-c3ccc(F)cc3)c12 -2.7%, O=C(c1ccc2c(c1)OCCO2)N(Cc1cccnc1)c1nc2c(F)cccc2s1 0%, Cc1cccc(-c2noc(CN(C(=O)c3ccccc3Cl)C(C)C)n2)c1 -18.5%, Cn1c(C(=O)NCCc2ccccc2)cc2c(=O)n3ccccc3nc21 4.14%, COc1ccc(CCNC(=O)CCCn2c(=O)c3ccccc3n(Cc3ccc(F)cc3Cl)c2=O)cc1OC -3.75%, COc1ccc(Cn2c(CNS(=O)(=O)c3ccc4c(c3)CCCC4)nc3cccnc32)cc1 -1.01%, Cc1ccc(CNc2nc3ccccc3c3nc(-c4cccc(C)c4)nn23)cc1 1.47%, CCCSc1oc(-c2cccs2)nc1S(=O)(=O)c1ccc(Cl)cc1 -5.54%, O=C(c1cnc(N2CCCCC2)c2ccccc12)N1CCN(c2ccccc2F)CC1 -6.22%, Cc1ccc2c(c1)c1c(c(=O)n(Cc3ccccc3)c(=O)n1Cc1cccc(C(F)(F)F)c1)n2C -0.0152%, COc1ccc(CNC(=O)CCc2c(C)nn(-c3ccc(N4CCCCC4)nn3)c2C)c(OC)c1 -12.6%, c1csc(C2=NC(c3ccncc3)=Nc3ccccc3N2)c1 1.22%, Cc1ccc(-n2ncc(C(=O)NCCCN3CCN(c4cccc(Cl)c4)CC3)c2-n2cccc2)cc1 -12.9%, CC(=O)N1CCc2cc(CNS(=O)(=O)c3ccc(Br)s3)ccc21 -1.75%, CCOc1ccc(C(=O)NCCc2sc3nc(-c4ccc(Cl)cc4)nn3c2C)cc1OCC 4.93%, CC1CCCN(Cc2cn3c(-c4cccc(Br)c4)nnc3s2)C1 (stereo unspecified) -0.758%, CC(C(=O)Nc1cc(C(F)(F)F)ccc1Cl)n1nnc2sc3c(c2c1=O)CCCC3 (stereo unspecified) -3%, Cc1ccccc1C(=O)NCc1nc2cccnc2n1Cc1ccccc1 1.73%, COc1cccc(CNC(=O)c2nn(-c3ccccc3Cl)nc2CO)c1 0.258%, Cc1ccc2oc(-c3ccc(C)c(NC(=O)c4ccc(C(C)(C)C)cc4)c3)nc2c1 -0.612%, Cc1ccc(-c2csc(=Nc3ccccc3)n2Cc2ccc3c(c2)OCO3)cc1C -2.78%, CCN1CCN(C(c2ccccc2)c2sc3nc(-c4ccco4)nn3c2O)CC1 (stereo unspecified) -9.13%, COc1ccc(S(=O)(=O)c2c(Nc3ccc(F)cc3)sc(C(=O)c3ccc4c(c3)OCO4)c2N)cc1 0.079%, CCOc1ccccc1C(=O)Oc1c(Sc2ccccc2)c(C)nn1C(C)(C)C 4.23%, COc1ccc(N2CCN(C(=O)c3ccc4c(c3)N(Cc3ccc(F)cc3)C(=O)c3ccccc3S4=O)CC2)cc1 (stereo unspecified) -7.96%, COc1ccccc1C(=O)n1nc(-c2ccco2)nc1NCc1ccc(Cl)cc1 3.88%, COCCc1nn2c(=O)cc(COC(=O)COc3ccc(F)cc3)nc2s1 -4.84%, COc1ccc(-c2cn3c(n2)sc2cc(C(=O)NCCCN4CCCCCC4)ccc23)cc1 2.81%, CCCOC(=O)c1c(NC(=O)C2c3ccccc3Oc3ccccc32)sc2c1CCC(C)C2 (stereo unspecified) 4.76%, CCC(O)c1cc2c(cc1NC(=O)c1cccc(Br)c1)OCCO2 (stereo unspecified) 3.69%, CN1CCN(c2oc(-c3ccc(COc4ccc(Cl)cc4)o3)nc2C#N)CC1 -4.71%, Cc1nc2ccccc2n1CCc1nc2c3ccccc3nc(SCC(=O)Nc3ccc(Br)cc3F)n2n1 -8.44%, CC(C)C12CN3CC(C(C)C)(CN(C1)C3c1ccc(Cl)cc1)C2=O (stereo unspecified) 1.43%, COc1ccc(-c2nc3ccccc3o2)cc1NC(=O)C(C)Oc1ccc(Cl)cc1Cl (stereo unspecified) -16.9%, CN(C)CCCN(C(=O)c1cccs1)c1nc2ccc(F)cc2s1 -0.986%, Cc1ccc(CNC(=O)CSc2nc(=O)[nH]c3c2CCCC3)cc1 2.22%, O=C(CN1C(=O)CCc2cc(S(=O)(=O)N3CCOCC3)ccc21)Nc1cccc(Cl)c1 0%, CCCSc1ncc(Cl)c(C(=O)N(Cc2ccc(N(C)C)cc2)C2CCS(=O)(=O)C2)n1 (stereo unspecified) -8.06%, COc1ccc(NC(=O)Cn2cnc3sc(C)c(S(=O)(=O)N4CCN(C)CC4)c3c2=O)cc1Cl -12.1%, CCOC(=O)c1ccc(N2C(=O)c3n[nH]c(C)c3C2c2ccc(C(C)(C)C)cc2)cc1 (stereo unspecified) -3.71%, CCOC(=O)CNC(=O)N1CCc2cc(S(=O)(=O)N3CCC(C)CC3)ccc21 -4.44%, Cc1ccc(NS(=O)(=O)c2ccc3c(c2)NC(=O)CCS3)cc1C -0.0233%, Cc1cccc(OC(=O)c2cc(-c3ccc4c(c3)OCCO4)on2)c1 -2.02%, CC(C)(C)OC(=O)N1CCC(c2c(C(=O)N3CCN(c4ncccn4)CC3)cnn2-c2ccccc2)CC1 -9.23%, Cc1ccccc1-n1c(/C=C/c2c(C)n(C)c3ccccc23)nc2ccccc2c1=O 9.22%, CCOC(=O)c1cccc(NC(=O)c2cc(CN3CCOCC3)on2)c1 -2.29%, CSc1ccc(CNc2ncc(-c3ccccc3)n2C)cc1 -11.4%, CCN(CC)S(=O)(=O)c1ccc(C(=O)Nc2nc3c(Cl)cc(Cl)cc3s2)cc1 0%, CCOC(=O)c1ccc(NC(=O)COCc2cc(-c3ccc4c(c3)OCO4)on2)cc1 2.32%, CC(=O)N1CCc2c(sc3c2c(=O)n(-c2ccccc2)c(=O)n3CC(=O)Nc2ccccc2C)C1 -0.871%, Cc1ccccc1S(=O)(=O)Cc1ccc(C(=O)NC2CCCCC2)o1 0.0403%
